The entries are a selection whose mix differs from that of the whole data set. Results filed as inconclusive are left out. The source made the active and inactive calls. How the source made its calls: active means hit-call score of the fitted dose curve at least 0.9, where 1 is the maximum; inconclusive means response in the unintended direction; inactive means score below 0.9.
The compounds below were run against human Peroxisome Proliferator-activated Receptor alpha (PPARa), PPARA (gene 5465) (UniProt Q07869) (assay: ATG_PPARa_TRANS: Attagene TRANS-FACTORIAL HepG2 Assay for human Peroxisome Proliferator-activated Receptor alpha (PPARa) (AID 2283001);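 on AC50: potency for gain of reporter signal over DMSO so agonist or activator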).
Chain of UniProt Q07869 (Q07869 whole entry, looked up): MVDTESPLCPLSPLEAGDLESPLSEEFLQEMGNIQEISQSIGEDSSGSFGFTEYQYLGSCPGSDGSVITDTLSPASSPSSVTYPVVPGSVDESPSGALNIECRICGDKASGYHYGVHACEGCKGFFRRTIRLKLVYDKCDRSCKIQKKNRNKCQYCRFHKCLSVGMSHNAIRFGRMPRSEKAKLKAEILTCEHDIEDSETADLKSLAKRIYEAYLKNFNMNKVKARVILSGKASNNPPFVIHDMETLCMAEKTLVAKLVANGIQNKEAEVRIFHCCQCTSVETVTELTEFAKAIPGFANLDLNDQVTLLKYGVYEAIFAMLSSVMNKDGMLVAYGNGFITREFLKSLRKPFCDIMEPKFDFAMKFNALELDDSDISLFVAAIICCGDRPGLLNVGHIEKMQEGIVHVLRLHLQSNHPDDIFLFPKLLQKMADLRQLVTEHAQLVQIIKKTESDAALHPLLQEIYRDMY
Protocol: ATG_TRANS is a cell-based, multiplexed-readout assay that uses HepG2, a human liver cell line, with measurements taken at 24 hours after chemical dosing in a 24-well plate.ATG_PPARa_TRANS is one of 30 assay component(s) measured or calculated from the ATG_TRANS assay. It is designed to make measurements of mRNA induction, a form of inducible reporter, as detected with fluorescence intensity signals by Reverse transcription polymerase chain reaction (RT-PCR) and Capillary electrophoresis technology.Data from the assay component ATG_PPARa_TRANS was analyzed into 1 assay endpoint. This assay endpoint, ATG_PPARa_TRANS, was analyzed in the positive analysis fitting direction relative to DMSO as the negative control and baseline of activity. Using a type of inducible reporter, measures of mRNA for gain-of-signal activity can be used to understand the reporter gene at the transcription factor-level as they relate to the gene PPARA. Furthermore, this assay endpoint can be referred to as a primary readout, because this assay has produced multiple assay endpoints where this one serves a reporter gene function. To generalize the intended target to other relatable targets, this assay endpoint is annotated to the nuclear receptor intended target family, where the subfamily is non-steroidal.
Human liver HepG2 cells are transiently transfected with multiple reporter transcription units (MRTUs) in 6-well plates using FuGene 6 reagent (Roche; 3 ml FuGene/1 mg DNA). The MRTU constructs are regulated by a cis-regulating element (promoter). […] A major difference between the CIS and TRANS system is that in CIS activities of endogenous TFs are measured, whereas the TRANS assay evaluates changes in activities of exogenous, chimeric NR-Gal4 proteins. […] At the end of 24 hour incubation, total RNA was isolated using TriZol reagent (Invitrogen). The isolated RNA is then reverse-transcribed using oligo(dT) primer and Mo-MLV reverse transcriptase (Invitrogen) with DNAse I (Ambion) treatment for 30 min. The one-tenth of the produced cDNA was amplified by PCR using Taq DNA polymerase (Invitrogen) and two reporter sequence-specific primers. The PCR products were fluorescently labeled by primer extension with 6-arboxyfluorescein (6-FAM) 5'-labeled reporter sequence-specific primer (2 min at 95 C, 20 s at 68 C and 10 min at 72 C) and these products were digested with 5U of HpaI (New England Biolabs) for 2h at 37 C. The fragments were purified using Qiaquick PCR columns (Qiagen), analyzed on an ABI 3130xL genetic analyzer (Applied Biosystems) with peak positions identified by using a set of X-rhodamine (ROX)-labeled MapMarker1000 molecular weight standards (BioVentures). The raw capillary electrophoresis data was processed using Attagraph software (Attagene).
In the case of `O=C(Nc1ccc([N+](=O)[O-])cc1Cl)c1cc(Cl)ccc1O`, the outcome was “inactive”.
`CCCCCCCCCC(=O)O` was tested, and the AC50 was active: 20.7 µM.
With `O=c1cc(-c2ccc(O)cc2)oc2cc(O)cc(O)c12` the outcome was “inactive”.
In the case of `NC(=NCCCCCCN=C(N)/N=C(\N)Nc1ccc(Cl)cc1)/N=C(\N)Nc1ccc(Cl)cc1`, the outcome was “inactive”.
With `O=c1c(-c2ccc(O)cc2)coc2cc(O)cc(O)c12` the AC50 was active: 43.3 µM.
For `CCCCCCCCCCN`, the AC50 was active: 33.4 µM.
With `CC(Cc1ccc(O)c(O)c1)C(C)Cc1ccc(O)c(O)c1` (stereo unspecified) the outcome was “inactive”.
For `C=C(C)C(=O)OCC(CC)(COC(=O)C(=C)C)COC(=O)C(=C)C`, the outcome was “inactive”.
With `Cc1ccc(-c2cc(C(F)(F)F)nn2-c2ccc(S(N)(=O)=O)cc2)cc1` the outcome was “inactive”.
In the case of `CCCCCCCC(=O)O`, the outcome was “inactive”.
For `O=C(CC(=O)c1ccccc1)c1ccccc1`, the outcome was “inactive”.

Source: PubChem BioAssay (EPA / NIEHS)
